Results on 48 compounds are retold here after PubChem BioAssay AID1508642 (National Center for Advancing Translational Sciences (NCATS), 2021).

SMILES strings stand for the structures. The campaign covered roughly 43,000 compounds. About 200 (0.47%) were called active. Roughly 12% stayed inconclusive and do not appear here. Calls come from the whole dose curve; as a rule, active = well fitted cell-killing curve with a large enough effect; inconclusive = small, poorly fitted or top-dose-only effect, or effect the other way; inactive = flat fitted curve, though single readings scatter. This is one part of the list.
% is set by controls: 0 for no effect and ±100 for the full control effect; potency is the fitted concentration of half-maximal effect.

This assay can be described thus: Cell viability qHTS assay in S16 Pmp22-F2sN cells. Note: nearly all actives have a fitted effect of over 65% in size. The conditions noted are these: S16 Pmp22-F2sN Schwann cells (luciferase reporters placed in the Pmp22 gene) viability, CellTiter-Glo, 24 h; series mostly up to 57.5 µM; activity change, negative = cytotoxicity: at the top concentration. In a few lines:
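Rat S16 Schwann reporter line, 24 h treatment with library compounds delivered at 23 nL per well. Cell viability by CellTiter-Glo luminescence.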
For orientation: Quantitative high-throughput screening tests each substance at several concentrations.
With `Cc1c(C(=O)NCCN(C)C)oc2c1-c1nn(Cc3cccc(Cl)c3)cc1CC2`, the “activity change, negative = cytotoxicity” value was inactive: 1.53%.

Turning to `Cc1nc(-c2ccc(F)cc2)sc1CCNC(=O)Cc1ccc(F)cc1`, the “activity change, negative = cytotoxicity” value is inactive: -10.7%.

Consider `CCOC(=O)c1cc2c(=O)n3ccccc3nc2n(C(C)C)c1=NC(=O)C(C)(C)Oc1ccc(Cl)cc1`, for which the “activity change, negative = cytotoxicity” value was inactive: 11.9%.

Regarding `CN(C)c1ccc(Nc2ncnc3c2c(-c2ccccc2)cn3-c2cccc(Cl)c2)cc1`, the “activity change, negative = cytotoxicity” value was inactive: 0.956%.

Consider `CCn1cc(/C=C(\NC(=O)c2cc(OC)c(OC)c(OC)c2)C(=O)NCCCn2ccnc2)c2ccccc21`, for which the “activity change, negative = cytotoxicity” value was inactive: 15.1%.

For `Cc1cc(NC(=O)Cc2ccccc2)cc(-c2nc3ccccc3o2)c1O`, the “activity change, negative = cytotoxicity” value was inactive: -3.45%.

Turning to `Cc1cccc(N2CCN(C(=O)c3cc(S(=O)(=O)N4CCC(C)CC4)cn3C)CC2)c1C`, the “activity change, negative = cytotoxicity” value was inactive: -1.65%.

Turning to `O=C(Nc1ccccc1F)c1nc(S(=O)(=O)Cc2ccccc2F)ncc1Cl`, the Potency was active: 6.31 µM.

For the compound `CCN(C(=O)c1noc2c1COc1ccc(C)cc1-2)c1cccc(C)c1`, the “activity change, negative = cytotoxicity” value is inactive: 16.7%.

For `Clc1cccc(-n2ncc3c(NC4CCCCC4)ncnc32)c1`, the “activity change, negative = cytotoxicity” value is inactive: -5.89%.

On to `CCOc1ccc(-c2nnc(SCC(=O)NC3CCCC3)nc2-c2ccc(OCC)c(OC)c2)cc1OC`, for which the “activity change, negative = cytotoxicity” value was inactive: 10.2%.

With `CCOc1ccc(CCNC(=O)C2CCN(c3ncnc4c3nc3n4CCCCC3)CC2)cc1`, the “activity change, negative = cytotoxicity” value is inactive: 1.83%.

In the case of `CCCNC(=O)c1ccc2c(c1)N=C(C)c1c(C)ccc(C)c1S2`, the “activity change, negative = cytotoxicity” value was inactive: 3.28%.

Turning to `O=C(NCc1ccc(Cl)cc1)C(=O)NCC(c1cccs1)S(=O)(=O)c1ccc(Cl)cc1` (stereo not drawn), the “activity change, negative = cytotoxicity” value is inactive: -1.14%.

Regarding `CCN(CC)c1nn2c(=O)c(C(=O)NCc3ccc(OC)cc3OC)cnc2s1`, the “activity change, negative = cytotoxicity” value is inactive: 4.86%.

For `Clc1ccccc1N1CCN(c2ncnc3c2c(-c2ccccc2)cn3-c2ccccc2)CC1`, the “activity change, negative = cytotoxicity” value was inactive: -6.32%.

Take `Cc1ccccc1NC(=O)CCC(=O)N1CCSc2ccccc21`: the “activity change, negative = cytotoxicity” value is inactive: 0.601%.

Consider `Cc1ccc(S(=O)(=O)N(CC(=O)Nc2ccc(C(C)C)cc2)Cc2ccccc2)cc1`, for which the “activity change, negative = cytotoxicity” value was inactive: -16.2%.

`CC(=O)N1c2ccc(S(=O)(=O)NCC3CCC(C(=O)NC(C)(C)C)CC3)cc2CC1C` (stereo not drawn): the “activity change, negative = cytotoxicity” value is inactive: -0.977%.

With `O=C(NCC(c1cccs1)S(=O)(=O)c1cccs1)c1ccccc1F` (stereo not drawn), the “activity change, negative = cytotoxicity” value was inactive: -0.656%.

`COc1ccccc1CNC(=O)c1ccccc1NC(=O)c1nsc2ccccc12`: the “activity change, negative = cytotoxicity” value was inactive: -1.64%.

On to `Cc1ccc(-n2nc3ccc(NC(=O)c4oc5ccccc5c4C)cc3n2)cc1`, for which the “activity change, negative = cytotoxicity” value was inactive: 25.6%.

For `Cc1ccc(NC(=O)c2c(NC(=O)c3ccco3)sc3c2CCC(C(C)(C)C)C3)c(C)c1` (stereo not drawn), the “activity change, negative = cytotoxicity” value is inactive: -10.6%.

In the case of `COc1cc(OC)c(NC(=O)c2nnn(Cc3ccc(C)cc3)c2N)cc1Cl`, the “activity change, negative = cytotoxicity” value is inactive: 10.6%.

For `Cc1ccc(NC(=O)CN2C(=O)CSc3ccc(S(=O)(=O)N4CCCC4)cc32)cc1F`, the “activity change, negative = cytotoxicity” value is inactive: -4.24%.

Take `Cc1ccccc1Cn1cc(CCC(=O)NC(C)c2ccccc2)c2ccccc21` (stereo not drawn): the “activity change, negative = cytotoxicity” value is inactive: 0.401%.

For `Cc1cc(C)c2oc(-c3cccc(NC(=O)c4ccc(Br)o4)c3)nc2c1`, the “activity change, negative = cytotoxicity” value was inactive: -3.1%.

Consider `CCC(C)c1ccc(OCC(=O)Nc2cccc(-c3nc4ncccc4o3)c2)cc1` (stereo not drawn), for which the “activity change, negative = cytotoxicity” value is inactive: -2.59%.

On to `O=C(Cc1ccc(F)cc1)NC1CC(=O)N(c2ccc3c(c2)OCCO3)C1` (stereo not drawn), for which the “activity change, negative = cytotoxicity” value is inactive: -2.24%.

For the compound `COc1cccc(-c2cn3c(n2)sc2cc(C(=O)NC4CCCCCC4)ccc23)c1`, the “activity change, negative = cytotoxicity” value was inactive: 4.52%.

Regarding `COc1ccc(Br)cc1CNC(=O)Cn1c(=O)c2cccn2c2ccc(F)cc21`, the “activity change, negative = cytotoxicity” value was inactive: 3.61%.

Consider `CC1=C(c2ccc(C)cc2)S(=O)(=O)N(Cc2ccc(C(=O)NCc3cccc(C)c3)cc2)C1=O`, for which the “activity change, negative = cytotoxicity” value was inactive: -6.73%.

For the compound `Cc1c(Cl)cccc1NC(=O)N1CCC(CN2CCCC2)CC1`, the “activity change, negative = cytotoxicity” value is inactive: 3.47%.

For the compound `COc1cccc(-n2nnc3c(sc4nc(C)cc(C)c43)c2=O)c1`, the “activity change, negative = cytotoxicity” value was inactive: -2.22%.

`COc1ccc(N2CCN(C(=O)c3cnc(N4CCCC4)nc3C)CC2)cc1`: the “activity change, negative = cytotoxicity” value was inactive: 4.38%.

As for `COc1ccc(-c2cc3nc(-c4ccccc4)cc(C(F)(F)F)n3n2)cc1`, the “activity change, negative = cytotoxicity” value is inactive: 3.35%.

`COc1ccc(CCNC(=O)Cc2c(C)c3c(cc(C)c4c(C)coc43)oc2=O)cc1`: the “activity change, negative = cytotoxicity” value is inactive: 12.8%.

`O=C(Nc1sc2c(c1C(=O)Nc1ccccc1Cl)CCCC2)c1ccccc1F`: the “activity change, negative = cytotoxicity” value was inactive: 7.87%.

As for `COc1ccc(CCNC(=O)CN(c2ccccc2OC)S(=O)(=O)c2ccc(C)cc2)cc1`, the “activity change, negative = cytotoxicity” value is inactive: -21.4%.

With `COC(=O)c1c(NC(=O)c2cc(=O)c3ccc(C)c(C)c3o2)sc2c1CCCC2`, the “activity change, negative = cytotoxicity” value was inactive: -0.544%.

On to `O=C(NCc1ccccc1Br)C1CCCN(C(=O)N2CCOc3ccccc32)C1` (stereo not drawn), for which the “activity change, negative = cytotoxicity” value is inactive: 2.78%.

`COCCCNC(=O)Cn1c(=O)n(Cc2ccc(C(=O)NCc3ccc(C)cc3)cc2)c(=O)c2ccccc21`: the “activity change, negative = cytotoxicity” value was inactive: 18.8%.

Take `Cc1ccc(NC(=O)CSc2nc(C)c(Cc3ccccc3)c(=O)[nH]2)cc1`: the “activity change, negative = cytotoxicity” value was inactive: 9.39%.

Turning to `COC(=O)c1ccc(NC(=O)CSc2nc3ccc(OC)cc3[nH]2)cc1`, the “activity change, negative = cytotoxicity” value is inactive: 2.72%.

For `Cc1ccc(CCNC(=O)c2ccc3c(=O)n(-c4ccc(C)cc4)c(=O)[nH]c3c2)cc1`, the “activity change, negative = cytotoxicity” value is inactive: -1.04%.

In the case of `CCOc1cccc2sc(NC(=O)c3ccc(S(=O)(=O)N4CCCc5ccccc54)cc3)nc12`, the “activity change, negative = cytotoxicity” value was inactive: -9.95%.

With `Cc1ccccc1S(=O)Cc1ccc(C(=O)NC2CCCCCC2)o1` (stereo not drawn), the “activity change, negative = cytotoxicity” value is inactive: 6.73%.

As to `CCOC(=O)c1ccc(CN(Cc2ccc(F)cc2)S(=O)(=O)c2ccc(F)cc2)cc1`, the “activity change, negative = cytotoxicity” value is inactive: 6.5%.
